Data from the supplement of paper PMC12230231.
± gives the standard deviation of the averaged measurements. Restriction of a single-cycle SIVsab GFP reporter by TRIM5α v1-loop variants in CRFK cells. Human variants: read share among cells still uninfected after two challenges over input, higher = gained restriction. Rhesus variants: share among infected cells over input, higher = lost restriction. Reporter dose not given per row. No active / inactive call per row; the paper calls a change when both replicates lie above its controls (mean + 2 SD of stop or wild-type variants, or the top frameshift score). Residues outside the varied loop are taken from Swiss-Prot. The paper reads the human single-substitution scores as noise; they and the rhesus combinations repeat poorly (rank correlation 0.3 to 0.4), indel scores repeat only for the top variants, rhesus substitutions well (0.9).

System: SIVsab (simian immunodeficiency virus of sabaeus monkeys), single-cycle GFP reporter, in CRFK cells
Assay: enrichment among uninfected cells over input (fold); higher = stronger restriction
Settings: library: human / rhesus combinations
Protocol: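 Pools of CRFK cells expressing variants of the TRIM5α v1 loop were challenged with the single-cycle reporter, sorted by GFP and sequenced; mean of two replicates.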

Sequence | enrichment
MASGILVNVKEEVTCPICLELLTQPLSLDCGHSFCQACLTANHKKSMLDKGESSCPVCRISYQPENIRPNRHVANIVEKLREVKLSPEGQKVDHCARHGEKLLLFCQEDGKVICWLCERSQEHRGHHTFLTEEVAREYQVKLQAALEMLRQKQQEAEELEADIREEKASWKTQIQYDKTNVLADFEQLRDILDWEESNELQNLEKEEEDILKSLTNSETEMVQQTQSLRELISDLEHRLQGSVMELLQGVDGVIKRTENVTLKKPETFPKNQRRVFRAPDLKGMLEVFRELTDVRRYWVDVTVAPNNISCAVISEDKRQVSSPKPQIIYGARGTLFPTFVNFNYCTGILGSQSITSGKHYWEVDVSKKTAWILGVCAGFQPDAMCNIEKNENYQPKYGYWVIGLEEGVKCSAFQDSSFHTPSVPFIVPLSVIICPDRVGVFLDYEACTVSFFNITNHGFLIYKFSHCSFSQPVFPYLNPRKCGVPMTLCSPSS [human TRIM5α, 330-340 = GARGTLFPTFV] | 0.00658 ± 0.0057
MASGILVNVKEEVTCPICLELLTQPLSLDCGHSFCQACLTANHKKSMLDKGESSCPVCRISYQPENIRPNRHVANIVEKLREVKLSPEGQKVDHCARHGEKLLLFCQEDGKVICWLCERSQEHRGHHTFLTEEVAREYQVKLQAALEMLRQKQQEAEELEADIREEKASWKTQIQYDKTNVLADFEQLRDILDWEESNELQNLEKEEEDILKSLTNSETEMVQQTQSLRELISDLEHRLQGSVMELLQGVDGVIKRTENVTLKKPETFPKNQRRVFRAPDLKGMLEVFRELTDVRRYWVDVTVAPNNISCAVISEDKRQVSSPKPQIIYQAPGTLFTFQTLTNFNYCTGILGSQSITSGKHYWEVDVSKKTAWILGVCAGFQPDAMCNIEKNENYQPKYGYWVIGLEEGVKCSAFQDSSFHTPSVPFIVPLSVIICPDRVGVFLDYEACTVSFFNITNHGFLIYKFSHCSFSQPVFPYLNPRKCGVPMTLCSPSS [human TRIM5α, 330-340 = QAPGTLFTFQTLT] | 0.0934 ± 0.06
MASGILVNVKEEVTCPICLELLTQPLSLDCGHSFCQACLTANHKKSMLDKGESSCPVCRISYQPENIRPNRHVANIVEKLREVKLSPEGQKVDHCARHGEKLLLFCQEDGKVICWLCERSQEHRGHHTFLTEEVAREYQVKLQAALEMLRQKQQEAEELEADIREEKASWKTQIQYDKTNVLADFEQLRDILDWEESNELQNLEKEEEDILKSLTNSETEMVQQTQSLRELISDLEHRLQGSVMELLQGVDGVIKRTENVTLKKPETFPKNQRRVFRAPDLKGMLEVFRELTDVRRYWVDVTVAPNNISCAVISEDKRQVSSPKPQIIYGARGTRFTFPTFVNFNYCTGILGSQSITSGKHYWEVDVSKKTAWILGVCAGFQPDAMCNIEKNENYQPKYGYWVIGLEEGVKCSAFQDSSFHTPSVPFIVPLSVIICPDRVGVFLDYEACTVSFFNITNHGFLIYKFSHCSFSQPVFPYLNPRKCGVPMTLCSPSS [human TRIM5α, 330-340 = GARGTRFTFPTFV] | 0.15 ± 0.11
MASGILVNVKEEVTCPICLELLTQPLSLDCGHSFCQACLTANHKKSMLDKGESSCPVCRISYQPENIRPNRHVANIVEKLREVKLSPEGQKVDHCARHGEKLLLFCQEDGKVICWLCERSQEHRGHHTFLTEEVAREYQVKLQAALEMLRQKQQEAEELEADIREEKASWKTQIQYDKTNVLADFEQLRDILDWEESNELQNLEKEEEDILKSLTNSETEMVQQTQSLRELISDLEHRLQGSVMELLQGVDGVIKRTENVTLKKPETFPKNQRRVFRAPDLKGMLEVFRELTDVRRYWVDVTVAPNNISCAVISEDKRQVSSPKPQIIYGAPGTRFPTFVNFNYCTGILGSQSITSGKHYWEVDVSKKTAWILGVCAGFQPDAMCNIEKNENYQPKYGYWVIGLEEGVKCSAFQDSSFHTPSVPFIVPLSVIICPDRVGVFLDYEACTVSFFNITNHGFLIYKFSHCSFSQPVFPYLNPRKCGVPMTLCSPSS [human TRIM5α, 330-340 = GAPGTRFPTFV] | 0.0931 ± 0.13
MASGILVNVKEEVTCPICLELLTQPLSLDCGHSFCQACLTANHKKSMLDKGESSCPVCRISYQPENIRPNRHVANIVEKLREVKLSPEGQKVDHCARHGEKLLLFCQEDGKVICWLCERSQEHRGHHTFLTEEVAREYQVKLQAALEMLRQKQQEAEELEADIREEKASWKTQIQYDKTNVLADFEQLRDILDWEESNELQNLEKEEEDILKSLTNSETEMVQQTQSLRELISDLEHRLQGSVMELLQGVDGVIKRTENVTLKKPETFPKNQRRVFRAPDLKGMLEVFRELTDVRRYWVDVTVAPNNISCAVISEDKRQVSSPKPQIIYQAPGTRFTFQSLTNFNYCTGILGSQSITSGKHYWEVDVSKKTAWILGVCAGFQPDAMCNIEKNENYQPKYGYWVIGLEEGVKCSAFQDSSFHTPSVPFIVPLSVIICPDRVGVFLDYEACTVSFFNITNHGFLIYKFSHCSFSQPVFPYLNPRKCGVPMTLCSPSS [human TRIM5α, 330-340 = QAPGTRFTFQSLT] | 1.75 ± 0.7
MASGILVNVKEEVTCPICLELLTQPLSLDCGHSFCQACLTANHKKSMLDKGESSCPVCRISYQPENIRPNRHVANIVEKLREVKLSPEGQKVDHCARHGEKLLLFCQEDGKVICWLCERSQEHRGHHTFLTEEVAREYQVKLQAALEMLRQKQQEAEELEADIREEKASWKTQIQYDKTNVLADFEQLRDILDWEESNELQNLEKEEEDILKSLTNSETEMVQQTQSLRELISDLEHRLQGSVMELLQGVDGVIKRTENVTLKKPETFPKNQRRVFRAPDLKGMLEVFRELTDVRRYWVDVTVAPNNISCAVISEDKRQVSSPKPQIIYQARGTRFPTLVNFNYCTGILGSQSITSGKHYWEVDVSKKTAWILGVCAGFQPDAMCNIEKNENYQPKYGYWVIGLEEGVKCSAFQDSSFHTPSVPFIVPLSVIICPDRVGVFLDYEACTVSFFNITNHGFLIYKFSHCSFSQPVFPYLNPRKCGVPMTLCSPSS [human TRIM5α, 330-340 = QARGTRFPTLV] | 0.628 ± 0.89

Same assay, conditions: library: insertions and deletions

Sequence | enrichment
MASGILVNVKEEVTCPICLELLTQPLSLDCGHSFCQACLTANHKKSMLDKGESSCPVCRISYQPENIRPNRHVANIVEKLREVKLSPEGQKVDHCARHGEKLLLFCQEDGKVICWLCERSQEHRGHHTFLTEEVAREYQVKLQAALEMLRQKQQEAEELEADIREEKASWKTQIQYDKTNVLADFEQLRDILDWEESNELQNLEKEEEDILKSLTNSETEMVQQTQSLRELISDLEHRLQGSVMELLQGVDGVIKRTENVTLKKPETFPKNQRRVFRAPDLKGMLEVFRELTDVRRYWVDVTVAPNNISCAVISEDKRQVSSPKPQIIYGARGTRYQTFVNFILGSQSITSGKHYWEVDVSKKTAWILGVCAGFQPDAMCNIEKNENYQPKYGYWVIGLEEGVKCSAFQDSSFHTPSVPFIVPLSVIICPDRVGVFLDYEACTVSFFNITNHGFLIYKFSHCSFSQPVFPYLNPRKCGVPMTLCSPSS [human TRIM5α, 5-codon deletion at 343] | 0.75 ± 0.59
MASGILVNVKEEVTCPICLELLTQPLSLDCGHSFCQACLTANHKKSMLDKGESSCPVCRISYQPENIRPNRHVANIVEKLREVKLSPEGQKVDHCARHGEKLLLFCQEDGKVICWLCERSQEHRGHHTFLTEEVAREYQVKLQAALEMLRQKQQEAEELEADIREEKASWKTQIQYDKTNVLADFEQLRDILDWEESNELQNLEKEEEDILKSLTNSETEMVQQTQSLRELISDLEHRLQGSVMELLQGVDGVIKRTENVTLKKPETFPKNQRRVFRAPDLKGMLEVFRELTDVRRYWVDVTVAPNNISCAVISEDKRQVSSPKPQIIYGVNFNYCTGILGSQSITSGKHYWEVDVSKKTAWILGVCAGFQPDAMCNIEKNENYQPKYGYWVIGLEEGVKCSAFQDSSFHTPSVPFIVPLSVIICPDRVGVFLDYEACTVSFFNITNHGFLIYKFSHCSFSQPVFPYLNPRKCGVPMTLCSPSS [human TRIM5α, 9-codon deletion at 331] | 1.08 ± 0.49
MASGILVNVKEEVTCPICLELLTQPLSLDCGHSFCQACLTANHKKSMLDKGESSCPVCRISYQPENIRPNRHVANIVEKLREVKLSPEGQKVDHCARHGEKLLLFCQEDGKVICWLCERSQEHRGHHTFLTEEVAREYQVKLQAALEMLRQKQQEAEELEADIREEKASWKTQIQYDKTNVLADFEQLRDILDWEESNELQNLEKEEEDILKSLTNSETEMVQQTQSLRELISDLEHRLQGSVMELLQGVDGVIKRTENVTLKKPETFPKNQRRVFRAPDLKGMLEVFRELTDVRRYWVDVTVAPNNISCAVISEDKRQVSSPKPQIIYGARGTRYQTFVNFLGSQSITSGKHYWEVDVSKKTAWILGVCAGFQPDAMCNIEKNENYQPKYGYWVIGLEEGVKCSAFQDSSFHTPSVPFIVPLSVIICPDRVGVFLDYEACTVSFFNITNHGFLIYKFSHCSFSQPVFPYLNPRKCGVPMTLCSPSS [human TRIM5α, 6-codon deletion at 343] | 1.12 ± 0.21
MASGILVNVKEEVTCPICLELLTQPLSLDCGHSFCQACLTANHKKSMLDKGESSCPVCRISYQPENIRPNRHVANIVEKLREVKLSPEGQKVDHCARHGEKLLLFCQEDGKVICWLCERSQEHRGHHTFLTEEVAREYQVKLQAALEMLRQKQQEAEELEADIREEKASWKTQIQYDKTNVLADFEQLRDILDWEESNELQNLEKEEEDILKSLTNSETEMVQQTQSLRELISDLEHRLQGSVMELLQGVDGVIKRTENVTLKKPETFPKNQRRVFRAPDLKGMLEVFRELTDVRRYWVDVTVAPNNISCAVISEDKRQVSSPKPQIIGARGTRYQTFVNFNYCTGILGSQSITSGKHYWEVDVSKKTAWILGVCAGFQPDAMCNIEKNENYQPKYGYWVIGLEEGVKCSAFQDSSFHTPSVPFIVPLSVIICPDRVGVFLDYEACTVSFFNITNHGFLIYKFSHCSFSQPVFPYLNPRKCGVPMTLCSPSS [human TRIM5α, 1-codon deletion at 329] | 0.706 ± 0.27
MASGILVNVKEEVTCPICLELLTQPLSLDCGHSFCQACLTANHKKSMLDKGESSCPVCRISYQPENIRPNRHVANIVEKLREVKLSPEGQKVDHCARHGEKLLLFCQEDGKVICWLCERSQEHRGHHTFLTEEVAREYQVKLQAALEMLRQKQQEAEELEADIREEKASWKTQIQYDKTNVLADFEQLRDILDWEESNELQNLEKEEEDILKSLTNSETEMVQQTQSLRELISDLEHRLQGSVMELLQGVDGVIKRTENVTLKKPETFPKNQRRVFRAPDLKGMLEVFRELTDVRRYWVDVTVAPNNISCAVISEDKRQVSSPKPQIIYGARGTRYQTFVNFGSQSITSGKHYWEVDVSKKTAWILGVCAGFQPDAMCNIEKNENYQPKYGYWVIGLEEGVKCSAFQDSSFHTPSVPFIVPLSVIICPDRVGVFLDYEACTVSFFNITNHGFLIYKFSHCSFSQPVFPYLNPRKCGVPMTLCSPSS [human TRIM5α, 7-codon deletion at 343] | 2.02 ± 0.89
MASGILVNVKEEVTCPICLELLTQPLSLDCGHSFCQACLTANHKKSMLDKGESSCPVCRISYQPENIRPNRHVANIVEKLREVKLSPEGQKVDHCARHGEKLLLFCQEDGKVICWLCERSQEHRGHHTFLTEEVAREYQVKLQAALEMLRQKQQEAEELEADIREEKASWKTQIQYDKTNVLADFEQLRDILDWEESNELQNLEKEEEDILKSLTNSETEMVQQTQSLRELISDLEHRLQGSVMELLQGVDGVIKRTENVTLKKPETFPKNQRRVFRAPDLKGMLEVFRELTDVRRYWVDVTVAPNNISCAVISEDKRQVSSPKPQRGTRYQTFVNFNYCTGILGSQSITSGKHYWEVDVSKKTAWILGVCAGFQPDAMCNIEKNENYQPKYGYWVIGLEEGVKCSAFQDSSFHTPSVPFIVPLSVIICPDRVGVFLDYEACTVSFFNITNHGFLIYKFSHCSFSQPVFPYLNPRKCGVPMTLCSPSS [human TRIM5α, 5-codon deletion at 327] | 0.982 ± 0.28
